From PubChem BioAssay AID624417 (National Center for Advancing Translational Sciences (NCATS), 2012)
In all, about 410,000 compounds went through this assay and about 6,400 (1.6%) were called active. The inconclusive results got no clear call from the source; some entries with a clear call stand among them for comparison. The call rests on the fitted dose curve; in most records, active means well fitted inhibition curve with a large enough effect; inconclusive means small, poorly fitted or top-dose-only effect; inactive means no such curve, though single readings can be large or run the other way. No potency is given beside an inconclusive call; the fits are too rough.

Target: Glucagon-like peptide 1 receptor (Homo sapiens) (UniProt P43220)
Sequence of UniProt P43220 (P43220 whole entry, looked up): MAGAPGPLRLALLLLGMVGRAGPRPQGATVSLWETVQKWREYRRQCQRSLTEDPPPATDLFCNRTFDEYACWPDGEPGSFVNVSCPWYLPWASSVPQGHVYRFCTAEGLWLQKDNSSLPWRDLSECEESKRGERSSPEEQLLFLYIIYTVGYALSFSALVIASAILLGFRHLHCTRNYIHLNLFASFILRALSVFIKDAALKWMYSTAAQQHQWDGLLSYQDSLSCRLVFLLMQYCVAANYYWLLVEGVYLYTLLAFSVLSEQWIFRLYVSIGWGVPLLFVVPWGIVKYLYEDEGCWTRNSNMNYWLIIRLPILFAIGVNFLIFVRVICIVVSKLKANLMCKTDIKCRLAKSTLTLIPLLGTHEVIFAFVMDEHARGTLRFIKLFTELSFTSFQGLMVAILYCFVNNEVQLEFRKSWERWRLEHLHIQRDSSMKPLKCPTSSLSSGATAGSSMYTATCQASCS
Assay: qHTS of GLP-1 Receptor Inverse Agonists (Inhibition Mode); further: nearly all actives have a fitted effect of over 55% in size
Details: HEK293 GLP-1R CRE-luciferase, luminescence, 24 h, GLP-1R form is constitutively active; series mostly up to 38.3 µM
In short: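 GLP-1R inverse agonism mode: basal reporter luminescence in engineered HEK293 cells measured after one day of compound exposure at 37 deg C, with a 12 min room-temperature detection step.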
Potency means the concentration at half of the fitted maximal effect; tags describe the fitted curve by direction and shape.

Compound | Potency
O=C(Nc1ccc2c(c1)OCCO2)C1CCN(S(=O)(=O)c2ccc(Br)s2)CC1 | inconclusive [inhibitor, partial curve, poor fit]
Cc1ccc(NC(=S)N=Nc2c(O)n(C)c3ccc(S(=O)(=O)N4CCOCC4)cc23)cc1 | inactive
CC(=O)C1=C(NC(=O)c2ccc(F)cc2)CC2C1C2(C)C (configuration not stated) | inconclusive [inhibitor, partial curve]
CC(C)[C@H]1CN(C)CCN1Cc1cn(C)nc1-c1cccc(Cl)c1 | inconclusive [inhibitor, partial curve, poor fit]
CCOC(=O)CN1C(C(=O)c2ccccc2)=C(OC(=O)C(C)(C)C)c2ccccc2S1(=O)=O | inconclusive [inhibitor, partial curve, poor fit]
COC(=O)c1ccc(CN2C(=O)C(C)N(C(=O)c3c(F)cccc3F)c3ccccc32)cc1 (configuration not stated) | inconclusive [inhibitor, single point]
O=C(NCc1ccco1)c1[nH]c(C(F)(F)F)nc1-c1ccccc1 | inactive
COc1cc2c(cc1NC(=O)CSc1ccccn1)oc1ccccc12 | inconclusive [inhibitor, full curve]
COc1ccc(NC(=O)C(c2ccccc2F)n2c(=O)c(-c3cc4ccccc4[nH]3)nc3ccccc32)cc1 (configuration not stated) | inconclusive [inhibitor, single point]
CCn1c(SCc2cccc(Br)c2)nnc1-c1nonc1NC(C)=O | inconclusive [inhibitor, single point]
Fc1cccc(Cl)c1CNn1cn[nH]c1=S | inactive
CCCCN(C)CCCNC(=O)C1CCC(CNS(=O)(=O)c2c(C)cc(C)cc2C)CC1 (configuration not stated) | inconclusive [inhibitor, partial curve, poor fit]
O=C(Cn1ncn2nc(-c3cccs3)cc2c1=O)NCc1ccc(Cl)cc1 | inactive
CC1(C)CC(=S)Nc2ccccc2S1 | inactive
Clc1ccc(Nc2ccc(-n3ccnc3)nn2)cc1Cl | inconclusive [inhibitor, single point]
OC(c1ccc(F)cc1)c1ncc(-c2cccc(C(F)(F)F)c2)[nH]1 (configuration not stated) | inconclusive [inhibitor, single point]
COc1cc2c(cc1OC)CN(C(=O)c1cc(S(=O)(=O)N3CCCCC3)ccc1Cl)CC2 | inconclusive [inhibitor, partial curve, poor fit]
O=C(NCCN1C(=O)S/C(=C\c2ccc(Cl)cc2Cl)C1=O)C1=COCCO1 | inconclusive [inhibitor, single point]
CCc1ccccc1NC(=O)Nc1cc(C(=O)NCc2cccc(F)c2)ccc1N1CCCC1 | inactive
Cc1cc(C)c(C)c(S(=O)(=O)N(C)CCc2ccccn2)c1C | inconclusive [inhibitor, single point]
C=CCn1c(=N)c(C(=O)NCCCOC)cc2c(=O)n3cc(C)ccc3nc21 | inactive
COc1ccc(-n2c(C)cc(C(=O)COC(=O)Cc3n[nH]c(=O)c4ccccc34)c2C)cc1 | inconclusive [inhibitor, partial curve, poor fit]
C[C@@H](NCCCn1cnc2c(OCc3ccccc3)ncnc21)c1cccc2ccccc12 | inconclusive [inhibitor, partial curve, poor fit]

Compound | Potency
CCOc1cc(CNC(C)C)c(Cl)cc1OCC(=O)NCCc1ccccc1 | inconclusive [inhibitor, partial curve, poor fit]
Cc1ccc(OCc2cc(C(=O)N(C)C3CCCc4ccccc43)no2)cc1C (configuration not stated) | active: 11.2 µM
Cc1ccc2nc(-c3cccc(Br)c3)c(Cc3cccc(Cl)c3)n2c1 | inconclusive [inhibitor, single point]
O=C(c1ccc2ncsc2c1)N1CCCCC1 | inactive
O=C(C1CCCN(S(=O)(=O)c2ccc([N+](=O)[O-])cc2)C1)N1CCCCC1 (configuration not stated) | inactive
CCc1ccc(NC(=S)NC2CC3CCCC(C2)N3Cc2cccs2)cc1 (configuration not stated) | inconclusive [inhibitor, single point]
Cc1ccccc1NS(=O)(=O)c1cc(C(=O)NCCSC2CCCCC2)ccc1C | inconclusive [inhibitor, partial curve, poor fit]
O=C(CCNS(=O)(=O)c1ccccc1F)OCc1ccccc1Cl | inconclusive [inhibitor, single point]
COc1ccc(C(=O)Nc2ccc(N3CCN(C(=O)c4ccccc4)CC3)cc2)cc1[N+](=O)[O-] | inconclusive [inhibitor, single point]
O=S(=O)(NCCc1ccc(Cl)cc1)c1cccs1 | inconclusive [inhibitor, single point]
Cn1cc(Cl)c(C(=O)Nc2nc3ccccc3s2)n1 | inconclusive [inhibitor, partial curve, poor fit]
CC1(c2nnc(-c3cccc(Cl)c3)o2)CC(c2ccc(F)cc2)=NO1 (configuration not stated) | inactive
Cc1ccc(C(=O)Nc2ccccc2)cc1S(=O)(=O)Nc1ccc(Br)cc1 | inconclusive [inhibitor, single point]
FC(F)(F)c1cc(-c2ccccc2)nc(NCC2CCCO2)n1 (configuration not stated) | inconclusive [inhibitor, full curve, poor fit]
Cc1cccc(NC(=O)c2ccc3c(O)c(S(=O)(=O)c4ccccc4)c(=O)[nH]c3c2)c1C | inactive
CC1=C(C(=O)OCc2ccccc2)N2C(=O)[C@@H](NC(=O)COc3ccccc3)[C@H]2SC1 | inconclusive [inhibitor, single point]
CN(CC(=O)Nc1ccc(F)cc1)C(=O)COC(=O)C1CCN(c2ccc(C(F)(F)F)cn2)CC1 | inconclusive [inhibitor, single point]
CC1(C)CC(NC(=O)c2cccc(Cl)c2)CC(C)(C)N1 | inconclusive [inhibitor, partial curve, poor fit]
COC(=O)C(C(=O)OC)c1cc2c(cc1CNS(=O)(=O)c1ccc(C)cc1)OCO2 | inactive
Cc1ccccc1-c1nc(CS(=O)(=O)CC(=O)NCCc2ccccc2)c(C)o1 | inconclusive [inhibitor, single point]
O=C(Nc1nccs1)c1ccc(-c2ccc(F)c(Cl)c2)o1 | inconclusive [inhibitor, partial curve, poor fit]
C[C@H](CO)N1C[C@H](C)[C@@H](CN(C)C(=O)NC2CCCCC2)Oc2c(NC(=O)Nc3ccccc3)cccc2C1=O | inactive
CN(C)C(CNC(=O)CCc1c[nH]c2ccccc12)c1ccccc1 (configuration not stated) | inconclusive [inhibitor, partial curve, poor fit]

Compound | Potency
COc1ccc(Cl)cc1NC(=O)CSc1nc2ccccc2c2nc(-c3ccccc3)nn12 | inactive
O=C(Nc1ccc2nc(SCC(=O)N3CCc4ccccc43)sc2c1)c1cccc(F)c1 | inactive
CSc1cccc(NC(=O)C2CCN(S(=O)(=O)c3ccc4c(c3)CCCN4C(=O)C3CCC3)CC2)c1 | inactive
CCOC(=O)c1c(C)nc2ccccc2c1-c1ccccc1 | inconclusive [inhibitor, single point]
COc1ccc(N(CC(C)C)S(=O)(=O)c2nnc(NC(=O)c3cccs3)s2)cc1 | inactive
O=C(NCc1ccccc1Cl)c1ccc(CSc2nc3ccncc3[nH]2)cc1 | active: 10 µM
CC(C)NCC(O)(c1ccc(Cl)cc1)c1ccc(Cl)cc1 | active: 12.6 µM
COc1ccc(S(=O)(=O)N2CCCC(C(=O)NCc3ccncc3)C2)cc1Cl (configuration not stated) | inactive
COc1ccc(C2CC(c3cccs3)=NN2S(=O)(=O)c2ccc(C)cc2)cc1 (configuration not stated) | inconclusive [inhibitor, single point]
COc1ccc(Br)cc1CNC(C)c1ccccc1 (configuration not stated) | inconclusive [inhibitor, partial curve]
O=C(NCCc1ccc(Cl)cc1)Nc1ccc(Cl)cc1 | inconclusive [inhibitor, full curve]
CCOc1ccc2c(c1)sc1nc(=O)n(-c3ccc(Cl)c(Cl)c3)c(=O)n12 | inactive
CCOc1ccccc1OCC(=O)Nc1ccccc1C(=O)NC1CC1 | inconclusive [inhibitor, partial curve, poor fit]
c1ccc(CSc2ncnc3ccccc23)cc1 | inconclusive [inhibitor, single point]
S=C(NC1CCCCC1)NN1CCCCCC1 | inconclusive [inhibitor, partial curve, poor fit]
CCN1CCCc2cc(CN(CCN3CCOCC3)C(=S)Nc3ccccc3OC)ccc21 | inconclusive [inhibitor, single point]
CC1CCN(CCOCCOc2ccccc2Br)CC1 | inconclusive [inhibitor, partial curve, poor fit]
C=CCNC(=O)c1onc(CSc2cccc(Cl)c2)c1C(=O)O | inconclusive [inhibitor, single point]
CC(O)CNCCCOc1cccc(Oc2ccccc2)c1 (configuration not stated) | inconclusive [inhibitor, partial curve, poor fit]
COc1cc(NC(=O)c2cccs2)c(C(=O)OCC(=O)c2cc(C)n(-c3ccccc3)c2C)cc1OC | inconclusive [inhibitor, full curve]
COc1ccccc1/C=C/CN1CCC(n2nccc2NC(=O)C2CC2)CC1 | inactive
